Measured values as given in PMC9911399, “Two distinct binding modes provide the RNA-binding protein RbFox with extraordinary sequence specificity”.
Where a chain is given by its changes, count along the chain named. The list shows a part of the results.

T1: RBFOX1 RRM RbFoxmut (Fox-RRM*) (Homo sapiens, UniProt Q9NWB1 109-208, R118D;E147R;N151S;E152T)
T1 sequence: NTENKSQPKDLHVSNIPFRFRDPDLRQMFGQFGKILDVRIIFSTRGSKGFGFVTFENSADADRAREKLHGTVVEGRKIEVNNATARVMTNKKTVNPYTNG

B1: GGUGGAU (DNA:RNA)
RNA: GGGAGACCGGAAUUCAGAUUGUCCGGUGGAUUUAAAUCCCGUCGUAGCCACCA
DNA 1: CAATCTGAATTCCGGTCTCCC
DNA 2: TGGTGGCTACGACGGGATT
B2: CACGAUC (DNA:RNA)
RNA: B1 RNA with G25C, G26A, U27C, G29A, A30U, U31C
DNA 1: CAATCTGAATTCCGGTCTCCC
DNA 2: TGGTGGCTACGACGGGATT
B3: CGACGUC (DNA:RNA)
RNA: B1 RNA with G25C, U27A, G28C, A30U, U31C
DNA 1: CAATCTGAATTCCGGTCTCCC
DNA 2: TGGTGGCTACGACGGGATT
B4: CUGUUGU (DNA:RNA)
RNA: B1 RNA with G25C, G26U, U27G, G28U, G29U, A30G
DNA 1: CAATCTGAATTCCGGTCTCCC
DNA 2: TGGTGGCTACGACGGGATT
B5: UCCCUGC (DNA:RNA)
RNA: GGGAGACCGGAAUUCAGAUUGUCCUCCCUGCUUAAAUCCCGUCGUAGCCACCA
DNA 1: CAATCTGAATTCCGGTCTCCC
DNA 2: TGGTGGCTACGACGGGATT
B6: AACAAAC (DNA:RNA)
RNA: B5 RNA with U25A, C26A, C28A, U29A, G30A
DNA 1: CAATCTGAATTCCGGTCTCCC
DNA 2: TGGTGGCTACGACGGGATT
B7: UCCGGCC (DNA:RNA)
RNA: B5 RNA with C28G, U29G, G30C
DNA 1: CAATCTGAATTCCGGTCTCCC
DNA 2: TGGTGGCTACGACGGGATT
B8: AGCUGCC (DNA:RNA)
RNA: B1 RNA with G25A, U27C, G28U, A30C, U31C
DNA 1: CAATCTGAATTCCGGTCTCCC
DNA 2: TGGTGGCTACGACGGGATT
B9: GCGUAAC (DNA:RNA)
RNA: B1 RNA with G26C, U27G, G28U, G29A, U31C
DNA 1: CAATCTGAATTCCGGTCTCCC
DNA 2: TGGTGGCTACGACGGGATT
B10: AUGAGUA (DNA:RNA)
RNA: B1 RNA with G25A, G26U, U27G, G28A, A30U, U31A
DNA 1: CAATCTGAATTCCGGTCTCCC
DNA 2: TGGTGGCTACGACGGGATT
B11: GUACUCG (DNA:RNA)
RNA: B5 RNA with U25G, C26U, C27A, G30C, C31G
DNA 1: CAATCTGAATTCCGGTCTCCC
DNA 2: TGGTGGCTACGACGGGATT
B12: CAGCCCC (DNA:RNA)
RNA: B5 RNA with U25C, C26A, C27G, U29C, G30C
DNA 1: CAATCTGAATTCCGGTCTCCC
DNA 2: TGGTGGCTACGACGGGATT
B13: ACGACUA (DNA:RNA)
RNA: B5 RNA with U25A, C27G, C28A, U29C, G30U, C31A
DNA 1: CAATCTGAATTCCGGTCTCCC
DNA 2: TGGTGGCTACGACGGGATT
B14: GCGUAAU (DNA:RNA)
RNA: B1 RNA with G26C, U27G, G28U, G29A
DNA 1: CAATCTGAATTCCGGTCTCCC
DNA 2: TGGTGGCTACGACGGGATT
B15: UGCUACA (DNA:RNA)
RNA: B5 RNA with C26G, C28U, U29A, G30C, C31A
DNA 1: CAATCTGAATTCCGGTCTCCC
DNA 2: TGGTGGCTACGACGGGATT
B16: AGGAAAU (DNA:RNA)
RNA: B1 RNA with G25A, U27G, G28A, G29A
DNA 1: CAATCTGAATTCCGGTCTCCC
DNA 2: TGGTGGCTACGACGGGATT
B17: CUUUAGG (DNA:RNA)
RNA: B1 RNA with G25C, G26U, G28U, G29A, A30G, U31G
DNA 1: CAATCTGAATTCCGGTCTCCC
DNA 2: TGGTGGCTACGACGGGATT
B18: AUGUUGA (DNA:RNA)
RNA: B5 RNA with U25A, C26U, C27G, C28U, C31A
DNA 1: CAATCTGAATTCCGGTCTCCC
DNA 2: TGGTGGCTACGACGGGATT
B19: GCUCUAA (DNA:RNA)
RNA: B1 RNA with G26C, G28C, G29U, U31A
DNA 1: CAATCTGAATTCCGGTCTCCC
DNA 2: TGGTGGCTACGACGGGATT
B20: UUUUCAU (DNA:RNA)
RNA: B1 RNA with G25U, G26U, G28U, G29C
DNA 1: CAATCTGAATTCCGGTCTCCC
DNA 2: TGGTGGCTACGACGGGATT
B21: CUCGCUG (DNA:RNA)
RNA: B1 RNA with G25C, G26U, U27C, G29C, A30U, U31G
DNA 1: CAATCTGAATTCCGGTCTCCC
DNA 2: TGGTGGCTACGACGGGATT
B22: GAUUCCA (DNA:RNA)
RNA: B1 RNA with G26A, G28U, G29C, A30C, U31A
DNA 1: CAATCTGAATTCCGGTCTCCC
DNA 2: TGGTGGCTACGACGGGATT
B23: UCGGGAC (DNA:RNA)
RNA: B1 RNA with G25U, G26C, U27G, U31C
DNA 1: CAATCTGAATTCCGGTCTCCC
DNA 2: TGGTGGCTACGACGGGATT
B24: CUCGCAU (DNA:RNA)
RNA: B1 RNA with G25C, G26U, U27C, G29C
DNA 1: CAATCTGAATTCCGGTCTCCC
DNA 2: TGGTGGCTACGACGGGATT
B25: UCUUUAG (DNA:RNA)
RNA: B5 RNA with C27U, C28U, G30A, C31G
DNA 1: CAATCTGAATTCCGGTCTCCC
DNA 2: TGGTGGCTACGACGGGATT
B26: AUCUUAA (DNA:RNA)
RNA: B5 RNA with U25A, C26U, C28U, G30A, C31A
DNA 1: CAATCTGAATTCCGGTCTCCC
DNA 2: TGGTGGCTACGACGGGATT
B27: UCCUACA (DNA:RNA)
RNA: B5 RNA with C28U, U29A, G30C, C31A
DNA 1: CAATCTGAATTCCGGTCTCCC
DNA 2: TGGTGGCTACGACGGGATT
B28: UACUGAA (DNA:RNA)
RNA: B1 RNA with G25U, G26A, U27C, G28U, U31A
DNA 1: CAATCTGAATTCCGGTCTCCC
DNA 2: TGGTGGCTACGACGGGATT
B29: CGAUAAA (DNA:RNA)
RNA: B1 RNA with G25C, U27A, G28U, G29A, U31A
DNA 1: CAATCTGAATTCCGGTCTCCC
DNA 2: TGGTGGCTACGACGGGATT
B30: CAGUUAA (DNA:RNA)
RNA: B1 RNA with G25C, G26A, U27G, G28U, G29U, U31A
DNA 1: CAATCTGAATTCCGGTCTCCC
DNA 2: TGGTGGCTACGACGGGATT
B31: CACUAGU (DNA:RNA)
RNA: B5 RNA with U25C, C26A, C28U, U29A, C31U
DNA 1: CAATCTGAATTCCGGTCTCCC
DNA 2: TGGTGGCTACGACGGGATT

Target: T1, RBFOX1 RRM RbFoxmut (Fox-RRM*)
Assay: EMSA; HiTS-Eq, 1 nM pool, 10 min; buffer printed only for the single-RNA assays: 10 mM Tris pH 7.5, 150 mM NaCl, 3.4 mM EDTA, 0.001% NP-40, 30 C
Details: tags: His6 N-terminal (pET28a); label: 5' 32P
Method in brief: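 A pool of RNA with 7 randomized nucleotides, 5′-radiolabelled and with DNA-annealed flanks, was equilibrated at 1 nM for 10 min in 50 µL with purified RbFox RRM, wild type or mutant, across increasing protein concentrations. Free RNA was separated by 8% native PAGE, excised, reverse-transcribed, barcoded by PCR and sequenced. Relative association constants were obtained from read-count changes of each RNA species versus the control reaction and normalised to the cognate motif.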

In order of rising binding signal:
1. B6  0.0356 KA relative to UGCAUGU
2. B2  0.0636 KA relative to UGCAUGU
3. B3  0.0705 KA relative to UGCAUGU
4. B22  0.0705 KA relative to UGCAUGU
5. B1  0.0712 KA relative to UGCAUGU
6. B12  0.0727 KA relative to UGCAUGU
7. B23  0.0751 KA relative to UGCAUGU
8. B28  0.0753 KA relative to UGCAUGU
9. B19  0.0761 KA relative to UGCAUGU
10. B27  0.0772 KA relative to UGCAUGU
11. B29  0.0781 KA relative to UGCAUGU
12. B9  0.0833 KA relative to UGCAUGU
13. B13  0.0834 KA relative to UGCAUGU
14. B17  0.0837 KA relative to UGCAUGU
15. B11  0.0853 KA relative to UGCAUGU
16. B16  0.0874 KA relative to UGCAUGU
17. B15  0.0945 KA relative to UGCAUGU
18. B20  0.106 KA relative to UGCAUGU
19. B21  0.108 KA relative to UGCAUGU
20. B31  0.108 KA relative to UGCAUGU
21. B7  0.109 KA relative to UGCAUGU
22. B14  0.11 KA relative to UGCAUGU
23. B24  0.121 KA relative to UGCAUGU
24. B5  0.127 KA relative to UGCAUGU
25. B30  0.127 KA relative to UGCAUGU
26. B26  0.132 KA relative to UGCAUGU
27. B25  0.135 KA relative to UGCAUGU
28. B18  0.158 KA relative to UGCAUGU
29. B4  0.166 KA relative to UGCAUGU
30. B10  0.184 KA relative to UGCAUGU
31. B8  0.202 KA relative to UGCAUGU
